Measurements from the supplement of paper PMC3334620.
In all, about 33,000 sequences were measured (“E-score (-0.5 to 0.5)”: median about -0.04, highest 2% from about 0.36 on). This is one part of the list.

Biological target: T1, Hmlalpha2 (UniProt P0CY09)
T1 sequence: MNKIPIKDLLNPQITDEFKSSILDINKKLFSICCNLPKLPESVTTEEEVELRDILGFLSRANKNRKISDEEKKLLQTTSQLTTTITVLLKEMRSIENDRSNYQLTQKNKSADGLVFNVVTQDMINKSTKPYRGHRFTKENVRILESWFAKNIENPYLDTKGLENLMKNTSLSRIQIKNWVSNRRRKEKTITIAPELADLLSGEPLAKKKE
Experiment: PBM E-score (8-mer binding enrichment) (E-score (-0.5 to 0.5)); higher = stronger / more preferred TF binding; most listed sequences are background and not binding sites
Conditions: protein concentration: 200 nM; construct: GST-full length
How it was run: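 E-scores (a modified Wilcoxon-Mann-Whitney statistic) were assigned by the Universal PBM Analysis Suite to every ungapped eight-base word pooled with its reverse complement. The input came from universal all-10-mer Agilent arrays made double-stranded by primer extension and probed with GST-tagged yeast transcription factors at about 100-200 nM. Fluorescent anti-GST detected bound protein, and masliner normalised the scans.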

Sequence | PBM E-score
ACGGGGTA | -0.142
GCATTTGA | 0.0634
AGTTCCGA | -0.111
ACTTCGTC | -0.037
CCGACTTC | -0.251
TGCATAAA | 0.169
AGGACCTC | -0.0898
GGTTGTCA | 0.107
AAGACTCT | -0.0145
CTAGGACA | 0.0398
AAGCTTCA | -0.12
ACAATACT | 0.216
CTTGCTGA | -0.119
CACCGCCC | -0.149
CCTATAGG | -0.299
ACACGGAT | 0.36
CGCGAGTC | -0.171
CGAGTGTA | 0.149
GCAAACCC | -0.0245
AAACGGGT | 0.153
GTAAGGGA | -0.0355
CTTAATCA | 0.0319
AGCAGCGA | 0.0529
AACGTTGC | 0.0955
ACGACATA | 0.134

Sequence | PBM E-score
GATCAATC | -0.166
GCCAACGC | 0.0928
AAACAGGA | 0.149
CCGTAGGA | -0.273
CAGCGCTG | 0.111
CTACTAGA | -0.0423
CCCTTTAG | -0.261
ATCTCTCC | -0.107
TAATGCAA | 0.0682
AAGACGAA | 0.0103
CTAACCAG | 0.0246
CAAATATG | 0.134
AAATAAAC | 0.149
ATACGAAG | 0.0224
CCGACAGC | -0.203
AAGTCTGT | 0.18
ACCGTTTC | 0.0108
CTACCGTA | 0.0168
GACCGCCC | -0.244
CGGGTTGC | -0.105
CTACTCCC | -0.112
ATGATATA | 0.048
AGGTGTAT | 0.0902
ACGGTTAC | 0.15
ATAGCACA | 0.112

Sequence | PBM E-score
CTTGGGAC | -0.351
CGTAAACG | 0.221
AGAGTCTC | -0.308
CCGCAATC | -0.227
AGGGGATA | -0.233
CCTTAACA | 0.291
ATTTAGTG | -0.0187
TAATAGCA | 0.0831
AGACGAAT | -0.0523
ACTGTTGG | -0.203
GCCCCCGA | -0.405
ATTTCTTA | 0.124
ACCGATCT | -0.148
ATCTTCCG | -0.0113
AAGCATCG | -0.0225
CGATGAAG | -0.00363
ATACAAAT | 0.262
GGCCTCCA | -0.198
GTTGATAA | 0.307
GAGAATGA | -0.0686
ACGGCTTC | -0.16
CTGCAGCC | -0.141
CGACCACG | 0.0469
GTCCGCGA | -0.175
ATCGCCGC | -0.0645

Sequence | PBM E-score
AAGGTGCC | -0.157
AGTATGGC | -0.0371
CTGACAAC | 0.0926
ATCAGGAC | -0.205
AGGTTTCG | -0.185
AAGCTGAA | -0.0116
GGAGCACC | -0.351
ATCGAGTG | 0.12
ACTTGCCG | -0.0643
GTGTGACA | 0.0967
GGACGGCA | 0.00374
CGGATCGC | -0.185
AACTTTCT | -0.0947
ATTTCTCC | -0.11
ATAGTAGC | -0.0215
CCATTTTA | 0.148
GGAAGGCA | -0.302
AATGCGCC | -0.0407
CGTGGCCA | -0.103
AACGTATA | 0.227
CGCATGAG | -0.222
ATTACAAT | 0.385
ATTCGTCG | 0.017
TGGTGTAA | 0.329
CACTCCCA | -0.129

Sequence | PBM E-score
AACTAAAA | 0.159
AAACTACG | 0.0854
CGGAAAAC | 0.128
CATAGATC | 0.00885
CGTTCGAA | 0.0425
CCCCTCGC | -0.363
AATGCAGA | 0.0193
GGACTACA | 0.161
GCTGATAA | 0.154
ATGGGTAC | 0.114
TAAAGCGA | -0.0154
AGTTTAGG | -0.0184
AACCATCT | -0.0719
CACGATGC | 0.0908
GAGCGGTA | -0.0188
CTTCGTCC | -0.187
ACAAAAGA | 0.115
CGTCCGTC | -0.33
AGTCCGCA | -0.162
TCTTGTCA | 0.219
TAAATTTA | 0.33
CGATAATA | -0.0285
GATCACTA | -0.0729
AACGTCCG | -0.175
ACTACGAA | 0.107

Sequence | PBM E-score
GTTCCCTA | 0.0562
GCTACCTA | 0.0181
GTGATGCA | 0.0568
GTGGAGAA | -0.195
TACGCGTA | 0.409
CCTTCGCA | -0.15
CGGGTTGA | -0.0908
CCTGGAAA | -0.14
AAACGGCC | -0.0779
CTCAGCAC | 0.0215
CACCAGCA | -0.128
ACGCAACA | 0.349
GATCACCA | -0.16
CCGGGGTC | -0.0429
ATCAAGGC | -0.0177
ACATCCGT | 0.0696
ATGGCTGG | -0.104
ATGAGAGC | -0.0514
GTATGACA | 0.22
ATCATTGA | 0.16
CTTCCGCC | -0.279
AGGCACGC | -0.188
TTAACGAA | 0.233
GAACTTAA | -0.00724
CCACTATC | -0.196

Sequence | PBM E-score
GTTTGCTA | 0.109
GTAACATA | 0.355
CTTGTAGA | 0.253
CGTCTATC | 0.0314
CAGTTTCA | -0.0961
CGAACTAG | -0.0887
GTACCCAC | -0.0853
CATAGTAC | -0.0469
GAACCCTC | -0.223
GGTTCCGA | -0.176
TTCCGCAA | 0.0155
AGGCGCAA | -0.0755
ATCCGAAG | -0.159
ATATCCCG | -0.0536
ATCACCAA | -0.0593
CCCGGACG | -0.198
AGACCGCC | -0.118
CCCAGAGG | -0.434
CGCATTTA | 0.213
ATCCCACC | -0.101
TAGGCGGA | 0.0174
TTGCGCAA | 0.133
